Out of some 52,000 compounds screened, about 4,300 (8.3%) were called active. Cut-off read from the data, not from the text of the source: active = survival mostly below about 52% (no sharp cut-off); inactive = mostly above about 56%. This is one part of the list.
These compounds were tested on DeltatarO mutant (assay: growth inhibition of S. aureus wild type versus tarO mutant, primary screen, teichoic acid synthesis inhibitors, RN4220, OD600 (AID 463173)). Details: OD600, 18 h, stronger effect = lower value, screened at 18.75 µg/mL (by protocol).

| Compound | survival |
| --- | --- |
| CC(C)NC(=O)C1CCC(Cn2c(=O)c3sccc3n(CC(=O)N3CCCC3)c2=O)CC1 (centres undefined) | inactive: 67% |
| COc1ccc(NC(=O)c2ccc3c(=O)n4nc(Nc5ccccc5C)sc4nc3c2)cc1Cl | inactive: 99% |
| Cc1ccccc1Nc1cc(C(=O)NC2CCCC2)c2ccccc2n1 | inactive: 85% |
| CCCOc1ccc(NC(=O)CC2C(=O)N(c3ccccc3)C(=O)N2Cc2ccc(F)cc2)cc1 (centres undefined) | active: 17% |
| Cc1cccc(Cn2cc(/C=C(/C#N)C(=O)Nc3cccc(Cl)c3)c3ccccc32)c1 | inactive: 79% |
| CCN(C(=O)c1cc2c(=O)oc3ccccc3c2s1)c1ccc(C)c(C)c1 | active: 15% |
| Cc1ccc(Cn2c(C(=O)O)c(CNC3CCCCC3)c3ccc(C)cc32)cc1 | inactive: 86% |
| Cc1cc(C)cc(NC(=O)c2cc(C)nc3c2c(C)nn3-c2ccccc2)c1 | active: -5% |
| O=C(CSc1nnc(Cc2ccccc2)n1Cc1ccco1)NC1CCCC1 | active: 44% |
| COc1ccc(NC(=O)Cn2c(=O)n(CCC(C)C)c(=O)c3cccnc32)cc1Cl | inactive: 70% |
| COc1cccc(-c2nc(SCC(=O)NCC3CCCO3)c(-c3ccc(C)cc3)[nH]2)c1 (centres undefined) | inactive: 103% |
| CCOc1ccc(C2CC(=O)NC(NC(=O)c3ccc(C)cc3)=N2)cc1 (centres undefined) | inactive: 89% |
| CCOc1ccc(NC(=O)c2cc3c(C)nn(-c4ccccc4)c3s2)cc1 | inactive: 75% |
| Cc1ccc(OCC(=O)N(Cc2ccc(Cl)cc2)Cc2ccco2)cc1C | inactive: 58% |
| CCN(CC)c1nc2c(S(=O)(=O)c3ccccc3)nnn2c2ccc(Cl)cc12 | inactive: 60% |
| CCOc1ccccc1CNC(=O)c1nc(-c2ccc(Cl)cc2)n2c1CCCCC2 | inactive: 67% |
| CCOc1ccc(CCNC(=O)c2c(C)oc3ncn(CC(C)C)c(=O)c23)cc1 | inactive: 72% |
| Cc1cccc(-c2nc(S(=O)(=O)c3ccc(Cl)cc3)c(N3CCCCCC3)o2)c1 | active: 46% |
| Clc1ccccc1CNc1ncnc2c1nc1n2CCCC1 | inactive: 97% |
| CSc1nc2ccc(S(=O)(=O)N3CCCCC3)cc2s1 | inactive: 98% |
| CC1CCN(C(=O)Cn2c(SCC(=O)NC(C)(C)C)nc3ccccc32)CC1 | inactive: 92% |
| CCc1ccc(NC(=O)Cn2nnnc2N)cc1 | inactive: 87% |
| CCC(=O)C1C(=O)CC(C)(C)CC1=O | inactive: 103% |

| Compound | survival |
| --- | --- |
| Cc1ccc(C(=O)NCC(c2ccc3c(c2)OCO3)N2CCN(c3ccc(F)cc3)CC2)cc1 (centres undefined) | inactive: 78% |
| CC(C)=CCc1c(O)cc(O)c2c1OC(c1ccccc1)CC2=O (centres undefined) | active: 1% |
| CCOc1ccccc1NC(=O)Cn1c(=O)n(Cc2nc(C)no2)c(=O)c2ccccc21 | inactive: 81% |
| O=C(COC(=O)c1cccs1)NCc1cccs1 | inactive: 81% |
| Cc1ccccc1C(=O)Nc1ccccc1OCc1cc(=O)n2ccccc2n1 | inactive: 80% |
| Cc1cc(C)cc(NC(=O)C2CCCN(c3cnccn3)C2)c1 (centres undefined) | inactive: 83% |
| Cc1ccc(Cl)cc1NC(=O)c1cc2c(=O)n3cccc(C)c3nc2n1C | inactive: 50% |
| Cc1ccc(S(=O)(=O)c2cnc(SCC(=O)Nc3ccccc3C(F)(F)F)[nH]c2=O)cc1C | inactive: 68% |
| CCOc1cc(CNC(=O)c2ccc3c(c2)nc2n3CCCCC2)ccc1OC | inactive: 86% |
| Cc1ccc(N2CCN(C(=O)c3ccc(Nc4nc5ccccc5n5nnnc45)cc3)CC2)c(C)c1 | inactive: 82% |
| COc1ccccc1N1CCN(S(=O)(=O)c2c(C)sc3ncn(CC(=O)Nc4ccc(C(C)C)cc4)c(=O)c23)CC1 | inactive: 70% |
| COc1ccc(-n2c(=O)c3c4c(sc3n(CC(=O)N3CCCCC3C)c2=O)CCC4)c(OC)c1 (centres undefined) | inactive: 87% |
| CC1CCN(CCCNC(=O)CN2C(=O)CSc3ccc(S(=O)(=O)N4CCC(C)CC4)cc32)CC1 | inactive: 95% |
| O=C(NCc1ccc(F)cc1)C1CCN(S(=O)(=O)c2ccc3c(c2)CCCN3C(=O)C2CCC2)CC1 | inactive: 91% |
| O=C(COc1ccccc1Cl)N(Cc1ccco1)Cc1ccco1 | inactive: 63% |
| Cc1ccccc1C(=O)Oc1cc(-c2ccc3c(c2)OCO3)cc(=O)c2c(C)oc(C)c12 | inactive: 111% |
| CN(C)c1ccc(NC(=O)CSc2nc(-c3ccco3)cc(C(F)(F)F)n2)cc1 | inactive: 65% |
| COc1ccccc1OCCCCn1c(C2CC(=O)N(c3ccccc3Cl)C2)nc2ccccc21 (centres undefined) | inactive: 61% |
| Cc1ccc(NC(=O)/C(C#N)=C/c2ccccc2Cl)cc1C | active: 34% |
| COc1ccc(CCNC(=O)Cn2c(=O)n(-c3ccc(OC)c(OC)c3)c(=O)c3ccccc32)cc1OC | inactive: 92% |
| CCN(CC)CCNC(=O)CN1C(=O)c2cccnc2Oc2ccc(C)cc21 | inactive: 67% |
| CCN(C(=O)c1sc2cc(OC)ccc2c1Cl)c1ccccc1 | active: 0% |
| Cc1ccc(NC(=O)CN2c3ccccc3S(=O)(=O)c3ccccc32)cc1F | inactive: 33% |

| Compound | survival |
| --- | --- |
| CN(Cc1ccccc1)Cc1c(O)ccc2c(=O)c(-c3ccccc3)c(C(F)(F)F)oc12 | inactive: 124% |
| O=C(NC1CCCC1)c1cnn(-c2ccc(F)cc2F)c1C1CCNCC1 | inactive: 49% |
| Cc1ccccc1C(=O)NC1CCN(CC(=O)NC(C)(C)C)CC1 | inactive: 85% |
| Cc1cccc(Cn2c(=O)n(CCCCC(=O)NCc3ccc4c(c3)OCO4)c(=O)c3ccccc32)c1 | inactive: 102% |
| CCSc1nnc2c(n1)OC(c1ccc(OC)cc1OC)N(C(C)=O)c1ccccc1-2 (centres undefined) | active: 58% |
| S=C(Nc1ccccc1)N1CCOCC1 | inactive: 89% |
| CC(=O)NCCNc1nc2c(-c3cccc(C)c3)nnn2c2ccc(Cl)cc12 | inactive: 80% |
| CSc1ccc(CNC(=O)Cc2csc3ccccc23)cc1 | inactive: 83% |
| COc1cccc(Nc2sc(C(=O)c3ccc4c(c3)OCO4)c(N)c2S(=O)(=O)c2ccccc2)c1 | inactive: 87% |
| COc1ccc(-n2nnnc2C2CCN(S(=O)(=O)c3ccc(F)cc3Cl)CC2)cc1 | inactive: 68% |
| COc1ccc(N2CC(NC(=O)Cc3cccs3)CC2=O)cc1 (centres undefined) | inactive: 49% |
| CC(C)NC(=O)COc1ccc(S(=O)(=O)N2CCCC2)cc1 | inactive: 97% |
| COc1cc(NC(=O)Cn2c(=O)n(CC(=O)NCCc3ccc(OC)c(OC)c3)c(=O)c3sccc32)cc(OC)c1 | active: 49% |
| Cc1nc(-c2ccc(S(=O)(=O)N3CCN(c4cccc(Cl)c4)CC3)cc2)co1 | inactive: 91% |
| CC(=O)c1cccc(NC(=O)c2sc(-n3nc(C)c(CCC(C)C)c3C)nc2C)c1 | inactive: 53% |
| Cn1cc(C(=O)O)c(=O)c2ccccc21 | inactive: 80% |
| Cc1ccc(C(=O)c2oc3ccccc3c2NC(=O)c2cc(-c3ccc(Cl)cc3)on2)cc1 | inactive: 87% |
| COc1ccc(Cl)cc1NC(=O)Cn1ncc2c3ccccc3n(Cc3ccccc3)c2c1=O | inactive: 125% |
| Cc1ccc2ncc(S(=O)(=O)c3ccccc3)c(N3CCCCC3C)c2c1 (centres undefined) | active: 7% |
| CCn1c(C)c(C)c2cc(C(=O)NCc3ccc(N(C)C)cc3)ccc21 | inactive: 113% |
| COc1ccc(CNC(=O)CN(c2cc(C(F)(F)F)ccc2Cl)S(C)(=O)=O)cc1 | inactive: 71% |
| COc1ccc(C2=NC3(CCCCCC3)N(CC(=O)Nc3ccc(C)c(C)c3)C2=O)cc1 | inactive: 70% |
| CCc1nc2c(cnn2-c2ccc(C)cc2)c(=O)n1-c1ccc(C)cc1 | inactive: 47% |

| Compound | survival |
| --- | --- |
| COc1ccc(S(=O)(=O)c2c(SC)nn(CC(=O)Nc3ccc(C)c(Cl)c3)c2N)cc1 | inactive: 83% |
| Cc1ccc(-c2noc(C(C)NC(=O)c3ccco3)n2)cc1 (centres undefined) | inactive: 70% |
| CCn1cc(C(=O)NCCc2ccc(OC)c(OC)c2)c(=O)c2cc(S(=O)(=O)N3CCOCC3)ccc21 | inactive: 70% |
| Cc1ccc(C(=O)Nc2nnc(S(=O)(=O)N(C)Cc3ccco3)s2)cc1 | active: 39% |
| Cc1ccc(C)c(NC(=O)CN2CCN(C3CCCCC3)C(=O)C2=O)c1 | inactive: 94% |
| COc1cccc(CNC(=O)c2ccc3c(c2)nc2n3CCOC2)c1OC | inactive: 81% |
| CC1CCN(S(=O)(=O)c2ccc3c(ccn3CC(=O)NCc3ccccc3F)c2)CC1 | inactive: 54% |
| CC1=C(c2ccc(C)cc2)S(=O)(=O)N(Cc2ccc(C(=O)NCc3ccccc3)cc2)C1=O | inactive: 81% |
| O=C(NCc1ccc(F)cc1)c1ccc2c(c1)N(Cc1c(F)cccc1Cl)C(=O)CS2 | active: 40% |
| Cc1cc(C)c2c(=O)cc(C(=O)Nc3sc4c(c3C#N)CCCC4)oc2c1 | active: 12% |
| Cc1ccccc1NC(=O)CN1C(=O)C2(SCC(=O)N2c2ccc(F)cc2)c2ccccc21 (centres undefined) | inactive: 72% |
| COCCCNC(=O)CSc1nc2cc3c(cc2c(=O)n1CCCCCC(=O)NCCc1ccc(OC)c(OC)c1)OCO3 | inactive: 88% |
| COc1ccccc1CNCC(=O)NCc1ccc(C)cc1 | inactive: 96% |
| CC(C)(C)C1CCc2nc(NC(=O)COc3ccccc3[N+](=O)[O-])sc2C1 (centres undefined) | inactive: 106% |
| CCc1nn2c(=O)cc(COC(=O)c3cccc(NC(=O)c4ccccc4C)c3)nc2s1 | inactive: 86% |
| O=C(NCc1ccc2c(c1)OCO2)c1ccc(S(=O)(=O)N2CCCC2)cc1 | inactive: 84% |
| Cc1ccc(CNS(=O)(=O)c2cc(C(=O)Nc3ccc(C(C)C)cc3)ccc2F)cc1 | inactive: 80% |
| COc1ccc(C2=C(C)C(N3CCC(C(=O)NCc4ccco4)CC3)=NS2(=O)=O)cc1 | inactive: 84% |
| CCN(CC)c1ccc(NC(=O)c2ccccc2F)cc1 | active: 63% |
| Cc1ccc(CNC(=O)CSCc2nc(-c3ccc(Cl)cc3)oc2C)cc1 | inactive: 66% |
